# Reference: the supplement of paper PMC8728848
# Some of the results follow.
# B1: B160 (Bifidobacterium sp) (protein)
# chain: MVSHNKRIVAALAAVAAMGIGLAGCGGSDTAGDTKSGSDGGVVNITYMHRLPDSEGMTLVNDIVAKWNKEHPNIQVKATKFDGNAADMIKKLETDVKAGNAPDLAQVGYAEVPEVFTKGLLQDVTDEAAKYKDDFASGPFALMQVDGKTYGLPQDTGPLTYFYNAAEFEKLGITVPKTADELIETAKKTAAQGKYIMTFTPDEAMMMMSGQAGASGPWYKVDGNSWVVNTQTKGSKAVADVYQQLIDNKAALTNPRWDASFDNSIQSGQLIGTVAAAWEAPLFIDSAGGTGAGEWKVTQLGDWFGNGTKTGANGGSGVAVLKGSKHPAEAMEFLDWFNTQVDDLVSQGLVVAATTADAKTPQKWSDYFSGQDVMAEFKTANDNMGDFTYMPGFSAVGAAMKQTAAKAADGSAKVSDVFDTAQKTSVDTLKNLGLSVKE
# Legend:
# Experiment in all cases: glycan array binding signal (z-score within array); higher = stronger binding
# Details in all cases: glycan notation: IUPAC condensed, linker removed
# [1] = biological target: Gal(b1-4)GlcNAc(b1-3)Gal(b1-4)GlcNAc(b1-2)[Gal(b1-4)GlcNAc(b1-3)Gal(b1-4)GlcNAc(b1-6)]Man(a1-6)[Gal(b1-4)GlcNAc(b1-3)Gal(b1-4)GlcNAc(b1-2)Man(a1-3)]Man(b1-4)GlcNAc(b1-4)GlcNAc
# How it was run: (§1)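 The Consortium for Functional Glycomics database supplied 3228 glycan arrays, of which those lacking an available protein sequence were dropped. The binding signal, a within-array Z-score, was averaged across arrays of the same protein sequence and across linkers. Negative scores can be read as non-binding.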
# [2] = biological target: Gal(b1-4)GlcNAc(b1-3)Gal(b1-4)GlcNAc(b1-2)[Gal(b1-4)GlcNAc(b1-3)Gal(b1-4)GlcNAc(b1-6)]Man(a1-6)[Gal(b1-4)GlcNAc(b1-3)Gal(b1-4)GlcNAc(b1-2)Man(a1-3)]Man(b1-4)GlcNAc(b1-4)[Fuc(a1-6)]GlcNAc
# How it was run: as §1
# [3] = biological target: Gal(b1-4)GlcNAc(b1-3)Gal(b1-4)GlcNAc(b1-3)Gal(b1-4)GlcNAc
# How it was run: as §1
# [4] = biological target: Gal(b1-4)GlcNAc(b1-3)Gal(b1-4)GlcNAc(b1-3)Gal(b1-4)GlcNAc(b1-2)Man(a1-3)[Gal(b1-4)GlcNAc(b1-3)Gal(b1-4)GlcNAc(b1-3)Gal(b1-4)GlcNAc(b1-2)Man(a1-6)]Man(b1-4)GlcNAc(b1-4)GlcNAc
# How it was run: as §1
# [5] = biological target: Gal(b1-4)GlcNAc(b1-3)Gal(b1-4)GlcNAc(b1-3)Gal(b1-4)GlcNAc(b1-2)Man(a1-3)[Gal(b1-4)GlcNAc(b1-3)Gal(b1-4)GlcNAc(b1-3)Gal(b1-4)GlcNAc(b1-2)Man(a1-6)]Man(b1-4)GlcNAc(b1-4)[Fuc(a1-6)]GlcNAc
# How it was run: as §1
# [6] = biological target: Gal(b1-4)GlcNAc(b1-3)Gal(b1-4)GlcNAc(b1-3)Gal(b1-4)GlcNAc(b1-2)[Gal(b1-4)GlcNAc(b1-3)Gal(b1-4)GlcNAc(b1-3)Gal(b1-4)GlcNAc(b1-6)]Man(a1-6)[Gal(b1-4)GlcNAc(b1-3)Gal(b1-4)GlcNAc(b1-3)Gal(b1-4)GlcNAc(b1-2)Man(a1-3)]Man(b1-4)GlcNAc(b1-4)[Fuc(a1-6)]GlcNAc
# How it was run: as §1
# [7] = biological target: Gal(b1-4)GlcNAc(b1-3)Gal(b1-4)GlcNAc(b1-3)Gal(b1-4)GlcNAc(b1-3)Gal(b1-4)GlcNAc(b1-2)Man(a1-3)[Gal(b1-4)GlcNAc(b1-3)Gal(b1-4)GlcNAc(b1-3)Gal(b1-4)GlcNAc(b1-3)Gal(b1-4)GlcNAc(b1-2)Man(a1-6)]Man(b1-4)GlcNAc(b1-4)GlcNAc
# How it was run: as §1
# [8] = biological target: Gal(b1-4)GlcNAc(b1-3)Gal(b1-4)GlcNAc(b1-3)Gal(b1-4)GlcNAc(b1-3)Gal(b1-4)GlcNAc(b1-2)Man(a1-3)[Gal(b1-4)GlcNAc(b1-3)Gal(b1-4)GlcNAc(b1-3)Gal(b1-4)GlcNAc(b1-3)Gal(b1-4)GlcNAc(b1-2)Man(a1-6)]Man(b1-4)GlcNAc(b1-4)[Fuc(a1-6)]GlcNAc
# How it was run: as §1
# [9] = biological target: Gal(b1-4)GlcNAc(b1-3)Gal(b1-4)GlcNAc(b1-3)Gal(b1-4)GlcNAc(b1-3)Gal(b1-4)GlcNAc(b1-2)[Gal(b1-4)GlcNAc(b1-3)Gal(b1-4)GlcNAc(b1-3)Gal(b1-4)GlcNAc(b1-3)Gal(b1-4)GlcNAc(b1-6)]Man(a1-6)[Gal(b1-4)GlcNAc(b1-3)Gal(b1-4)GlcNAc(b1-3)Gal(b1-4)GlcNAc(b1-3)Gal(b1-4)GlcNAc(b1-2)Man(a1-3)]Man(b1-4)GlcNAc(b1-4)[Fuc(a1-6)]GlcNAc
# How it was run: as §1
# [10] = biological target: Gal(b1-4)GlcNAc(b1-3)Gal(b1-4)GlcNAc(b1-3)Gal(b1-4)GlcNAc(b1-3)Gal(b1-4)GlcNAc(b1-3)Gal(b1-4)GlcNAc(b1-2)Man(a1-3)[Gal(b1-4)GlcNAc(b1-3)Gal(b1-4)GlcNAc(b1-3)Gal(b1-4)GlcNAc(b1-3)Gal(b1-4)GlcNAc(b1-3)Gal(b1-4)GlcNAc(b1-2)Man(a1-6)]Man(b1-4)GlcNAc(b1-4)GlcNAc
# How it was run: as §1
# [11] = biological target: Gal(b1-4)GlcNAc(b1-3)Gal(b1-4)GlcNAc(b1-3)Gal(b1-4)GlcNAc(b1-3)Gal(b1-4)GlcNAc(b1-3)Gal(b1-4)GlcNAc(b1-2)Man(a1-3)[Gal(b1-4)GlcNAc(b1-3)Gal(b1-4)GlcNAc(b1-3)Gal(b1-4)GlcNAc(b1-3)Gal(b1-4)GlcNAc(b1-3)Gal(b1-4)GlcNAc(b1-2)Man(a1-6)]Man(b1-4)GlcNAc(b1-4)[Fuc(a1-6)]GlcNAc
# How it was run: as §1
# [12] = biological target: Gal(b1-4)GlcNAc(b1-3)Gal(b1-4)GlcNAc(b1-3)Gal(b1-4)GlcNAc(b1-3)Gal(b1-4)GlcNAc(b1-3)Gal(b1-4)GlcNAc(b1-2)[Gal(b1-4)GlcNAc(b1-3)Gal(b1-4)GlcNAc(b1-3)Gal(b1-4)GlcNAc(b1-3)Gal(b1-4)GlcNAc(b1-3)Gal(b1-4)GlcNAc(b1-6)]Man(a1-6)[Gal(b1-4)GlcNAc(b1-3)Gal(b1-4)GlcNAc(b1-3)Gal(b1-4)GlcNAc(b1-3)Gal(b1-4)GlcNAc(b1-3)Gal(b1-4)GlcNAc(b1-2)Man(a1-3)]Man(b1-4)GlcNAc(b1-4)[Fuc(a1-6)]GlcNAc
# How it was run: as §1
# [13] = biological target: Gal(b1-4)GlcNAc(b1-3)Gal(b1-4)GlcNAc(b1-3)Gal(b1-4)GlcNAc(b1-3)Gal(b1-4)GlcNAc(b1-3)Gal(b1-4)GlcNAc(b1-3)Gal(b1-4)GlcNAc(b1-2)Man(a1-3)[Gal(b1-4)GlcNAc(b1-3)Gal(b1-4)GlcNAc(b1-3)Gal(b1-4)GlcNAc(b1-3)Gal(b1-4)GlcNAc(b1-3)Gal(b1-4)GlcNAc(b1-3)Gal(b1-4)GlcNAc(b1-2)Man(a1-6)]Man(b1-4)GlcNAc(b1-4)GlcNAc
# How it was run: as §1
# [14] = biological target: Gal(b1-4)GlcNAc(b1-3)Gal(b1-4)GlcNAc(b1-3)GalNAc
# How it was run: as §1
# [15] = biological target: Gal(b1-4)GlcNAc(b1-3)Gal(b1-4)GlcNAc(b1-3)[Gal(b1-4)GlcNAc(b1-3)Gal(b1-4)GlcNAc(b1-6)]GalNAc
# How it was run: as §1
# [16] = biological target: Gal(b1-4)GlcNAc(b1-3)Gal(b1-4)GlcNAc(b1-6)[Gal(b1-3)]GalNAc
# How it was run: as §1
# [17] = biological target: Gal(b1-4)GlcNAc(b1-3)Gal(b1-4)[Fuc(a1-3)]GlcNAc(b1-3)Gal(b1-4)[Fuc(a1-3)]GlcNAc
# How it was run: as §1
# [18] = biological target: Gal(b1-4)GlcNAc(b1-3)GalNAc
# How it was run: as §1
# [19] = biological target: Gal(b1-4)GlcNAc(b1-3)[Fuc(a1-3)GlcNAc(b1-6)]Gal(b1-4)Glc
# How it was run: as §1
# [20] = biological target: Gal(b1-4)GlcNAc(b1-3)[Gal(b1-4)GlcNAc(b1-6)]Gal(b1-4)GlcNAc
# How it was run: as §1
# [21] = biological target: Gal(b1-4)GlcNAc(b1-3)[GlcNAc(b1-6)]Gal(b1-4)GlcNAc
# How it was run: as §1
# [22] = biological target: Gal(b1-4)GlcNAc(b1-6)Gal(b1-4)GlcNAc
# How it was run: as §1
# [23] = biological target: Gal(b1-4)GlcNAc(b1-6)GalNAc
# How it was run: as §1
# [24] = biological target: Gal(b1-4)GlcNAc(b1-6)[Gal(b1-3)]GalNAc
# How it was run: as §1
# [25] = biological target: Gal(b1-4)GlcNAc(b1-6)[Gal(b1-4)GlcNAc(b1-3)]GalNAc
# How it was run: as §1
# [26] = biological target: Gal(b1-4)GlcNAc6P
# How it was run: as §1
# [27] = biological target: Gal(b1-6)Gal
# How it was run: as §1
# [28] = biological target: Gal3S(b1-3)GalNAc
# How it was run: as §1
# [29] = biological target: Gal3S(b1-3)GlcNAc
# How it was run: as §1
# [30] = biological target: Gal3S(b1-3)[Fuc(a1-4)]GlcNAc
# How it was run: as §1
# [31] = biological target: Gal3S(b1-4)Glc
# How it was run: as §1
# [32] = biological target: Gal3S(b1-4)Glc6S
# How it was run: as §1
# [33] = biological target: Gal3S(b1-4)GlcNAc
# How it was run: as §1
# [34] = biological target: Gal3S(b1-4)[Fuc(a1-3)]Glc6S
# How it was run: as §1
# [35] = biological target: Gal3S(b1-4)[Fuc(a1-3)]GlcNAc
# How it was run: as §1
# [36] = biological target: Gal3S(b1-4)[Fuc(a1-3)]GlcNAc6S
# How it was run: as §1
# [37] = biological target: Gal3S4S(b1-4)GlcNAc
# How it was run: as §1
# [38] = biological target: Gal3S6S(b1-4)GlcNAc
# How it was run: as §1
# [39] = biological target: Gal3S6S(b1-4)GlcNAc6S
# How it was run: as §1
# [40] = biological target: Gal4S(b1-4)GlcNAc
# How it was run: as §1
# [41] = biological target: Gal4S6S(b1-4)GlcNAc
# How it was run: as §1
# [42] = biological target: Gal6P(b1-4)GlcNAc
# How it was run: as §1
# [43] = biological target: Gal6S(b1-3)GlcNAc
# How it was run: as §1
# [44] = biological target: Gal6S(b1-3)GlcNAc6S
# How it was run: as §1
# [45] = biological target: Gal6S(b1-4)Glc
# How it was run: as §1
binder,measurement,setting,value
B1,glycan array binding signal (z-score),[1],-0.145
same,glycan array binding signal (z-score),[2],-0.109
same,glycan array binding signal (z-score),[3],0.032
same,glycan array binding signal (z-score),[4],-0.068
same,glycan array binding signal (z-score),[5],-0.069
same,glycan array binding signal (z-score),[6],-0.017
same,glycan array binding signal (z-score),[7],0.04
same,glycan array binding signal (z-score),[8],-0.032
same,glycan array binding signal (z-score),[9],0.086
same,glycan array binding signal (z-score),[10],0.049
same,glycan array binding signal (z-score),[11],0.002
same,glycan array binding signal (z-score),[12],0.38
same,glycan array binding signal (z-score),[13],-0.067
same,glycan array binding signal (z-score),[14],-0.143
same,glycan array binding signal (z-score),[15],-0.14
same,glycan array binding signal (z-score),[16],-0.148
same,glycan array binding signal (z-score),[17],-0.054
same,glycan array binding signal (z-score),[18],-0.164
same,glycan array binding signal (z-score),[19],-0.156
same,glycan array binding signal (z-score),[20],-0.152
same,glycan array binding signal (z-score),[21],-0.187
same,glycan array binding signal (z-score),[22],-0.188
same,glycan array binding signal (z-score),[23],-0.133
same,glycan array binding signal (z-score),[24],-0.172
same,glycan array binding signal (z-score),[25],-0.161
same,glycan array binding signal (z-score),[26],-0.156
same,glycan array binding signal (z-score),[27],-0.151
same,glycan array binding signal (z-score),[28],-0.177
same,glycan array binding signal (z-score),[29],-0.199
same,glycan array binding signal (z-score),[30],-0.16
same,glycan array binding signal (z-score),[31],-0.159
same,glycan array binding signal (z-score),[32],-0.167
same,glycan array binding signal (z-score),[33],-0.172
same,glycan array binding signal (z-score),[34],-0.134
same,glycan array binding signal (z-score),[35],-0.188
same,glycan array binding signal (z-score),[36],-0.162
same,glycan array binding signal (z-score),[37],-0.166
same,glycan array binding signal (z-score),[38],-0.174
same,glycan array binding signal (z-score),[39],-0.112
same,glycan array binding signal (z-score),[40],-0.191
same,glycan array binding signal (z-score),[41],-0.156
same,glycan array binding signal (z-score),[42],-0.173
same,glycan array binding signal (z-score),[43],-0.142
same,glycan array binding signal (z-score),[44],-0.179
same,glycan array binding signal (z-score),[45],-0.225
